PubChem BioAssay AID588855 (National Center for Advancing Translational Sciences (NCATS), 2011)
Hit rate of the full screen: of about 410,000 compounds, about 5,000 (1.2%) were called active. Inconclusive means that the source gave no clear call. Such entries were picked first, then a sample of the others. Calls come from the whole dose curve; as a rule, active = well fitted inhibition curve with a large enough effect; inconclusive = small, poorly fitted or top-dose-only effect; inactive = no such curve, though single readings can be large or run the other way. Where the call is inconclusive, the potency comes from a doubtful curve fit. Square brackets hold non-standard residues; d marks the D form. Peptide text beside a SMILES is read from it. * marks the point of attachment. ξ: configuration not given here. ξY = NC(Cc1ccc(O)cc1)C(=O)O; Cbz = O=C(OCc1ccccc1)*; OtBu = CC(C)(C)O*; tBu = CC(C)(C)*
Potency is the fitted concentration of half-maximal effect; tags give direction and shape of the fitted curve.

Experiment: qHTS for Inhibitors of TGF-b; note: nearly all actives have a fitted effect of over 65% in size
Settings: HepG2 CAGA-GFP TGF-b/SMAD3 reporter, GFP fluorescence, 18 h, TGF-beta stimulated, 500 pg/mL final; series mostly up to 46.1 µM
In short: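 Using HEPG2 CAGA-GFP reporter cells at 1000 cells/well, we pinned test compounds, stimulated with recombinant TGF-beta (500 pg/mL final) and measured total well GFP after 18 h.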
In the case of `COc1ccc(CNc2oc(COc3ccc(Cl)cc3)nc2C#N)cc1`, the Potency is reported as inconclusive: 20 µM [inhibitor, single point].
For `O=C(CSc1nnc(CN2CCCCC2)n1-c1ccccc1)c1ccc2c(c1)OCO2`, the Potency was inconclusive: 35.5 µM [inhibitor, single point].
In the case of `CCOc1ccc2c(c1)c(=O)c(C(=O)c1ccccc1)cn2Cc1ccccc1F`, the Potency is reported as inconclusive: 12.6 µM [inhibitor, partial curve, poor fit].
In the case of `COc1cc(C(=O)NCCOc2ccc(C)c(C)c2)cc(OC)c1OC`, the Potency is reported as “inactive”.
In the case of `CCc1ccc2nc(N(CCCN(C)C)C(=O)c3ccc4c(c3)OCCO4)sc2c1`, the Potency is reported as inconclusive: 22.4 µM [inhibitor, single point].
For `Cc1nn(C(=O)c2ccc([N+](=O)[O-])cc2)c(C)c1Br`, the Potency was inconclusive: 25.1 µM [inhibitor, single point].
In the case of `Cc1cccc(/C=C/C(=O)c2cc(Br)ccc(=O)c2O)c1`, the Potency is reported as inconclusive: 35.5 µM [inhibitor, single point].
With `CCOc1ccccc1C(=O)Nc1cc(C(=O)NCCc2ccccc2)ccc1Cl` the Potency was “inactive”.
With `COc1ccc(Cl)cc1C(=O)NNC(=O)c1nn(C)c(=O)c2ccccc12` the Potency was inconclusive: 35.5 µM [inhibitor, single point].
In the case of `CN(C(=O)c1ccc(NC(=O)C2CC=CCC2C(=O)O)cc1)c1ccccc1` (stereo not given), the Potency is reported as inconclusive: 35.5 µM [inhibitor, single point].
For `CN1CCN(C2=C(Cl)C(=O)c3ccccc3C2=O)CC1`, the Potency was inconclusive: 10 µM [inhibitor, partial curve, poor fit].
In the case of `Cn1cnnc1Sc1ccc(C(=O)NCCC(c2ccccc2)c2ccccc2)cc1[N+](=O)[O-]`, the Potency is reported as inconclusive: 20 µM [inhibitor, partial curve, poor fit].
With `COc1cc([N+](=O)[O-])ccc1NC(=O)Cc1ccc(F)cc1` the Potency was inconclusive: 1.12 µM [inhibitor, full curve, poor fit].
In the case of `Nn1cc(-c2ccccc2)nc1SCC(=O)N1CCN(S(=O)(=O)c2ccc3ccccc3c2)CC1`, the Potency is reported as inconclusive: 11.2 µM [inhibitor, partial curve, poor fit].
In the case of `Cc1ccc(S(=O)(=O)N2[C@@H](c3ccccc3)C(C(=O)O)=CC[C@H]2c2ccc3c(c2)OCO3)cc1`, the Potency is reported as “inactive”.
For `COc1ccc(C(C[N+](=O)[O-])C2(c3ccc(OC)c(OC)c3)C(=O)c3ccccc3C2=O)cc1` (stereo not given), the Potency was inconclusive: 35.5 µM [inhibitor, single point].
In the case of `Cc1nnc(SCC(=O)NC2CCCCC2)n(N)c1=O`, the Potency is reported as inconclusive: 3.98 µM [inhibitor, single point].
For `CCOC(=O)N1CCN(c2ccc(S(=O)(=O)N3CCOCC3)cc2[N+](=O)[O-])CC1`, the Potency was “inactive”.
With `Cc1cc([N+](=O)[O-])ccc1NCc1ccccc1` the Potency was “inactive”.
With `Cc1c(CCOC(=O)C23CC4CC(CC(C)(C4)C2)C3)sc[n+]1CC(=O)c1ccccc1` the Potency was inconclusive: 35.5 µM [inhibitor, single point].
In the case of `O=C(c1ccc2c(c1)N(Cc1cccc(Cl)c1)C(=O)c1ccccc1S2(=O)=O)N1CCc2ccccc21`, the Potency is reported as inconclusive: 2.51 µM [inhibitor, full curve, poor fit].
For `Cc1ccccc1Nc1nnc(SCC(=O)NC2CCCc3ccccc32)s1` (stereo not given), the Potency was “inactive”.
In the case of `COc1cc(Cl)c(C)cc1NC(=O)C1CCCN(c2ncnc3onc(-c4ccc(F)cc4)c23)C1` (stereo not given), the Potency is reported as inconclusive: 12.6 µM [inhibitor, partial curve].
In the case of `CSc1ccccc1NC(=O)Nc1cccc(F)c1`, the Potency is reported as inconclusive: 8.91 µM [inhibitor, partial curve, poor fit].
With `CCOC(=S)SCC(=O)Nc1ncc(C)s1` the Potency was inconclusive: 12.6 µM [inhibitor, partial curve, poor fit].
In the case of `COc1ccc(-c2c(C#N)c(N)nc3c2CCC3)cc1`, the Potency is reported as “inactive”.
With `S=C(NCCc1ccccc1)N/N=C/c1ccccc1Cl` the Potency was inconclusive: 6.31 µM [inhibitor, partial curve, poor fit].
For `O=C(Nc1ccccn1)c1ccc(Cl)c(S(=O)(=O)N2CCc3ccccc32)c1`, the Potency was inconclusive: 14.1 µM [inhibitor, single point].
In the case of `CC1CCN(C(=O)COC(=O)c2ccccc2NCCO)CC1`, the Potency is reported as “inactive”.
In the case of `Cc1ccc(S(=O)(=O)N(C)c2ccc(OC(C)C(=O)N(C)c3ccccc3)cc2)cc1` (stereo not given), the Potency is reported as “inactive”.
With `Cc1ccc(C(=O)N2CCN(c3cccc(Cl)c3)CC2)cc1-n1c(C)nc2cccnc21` the Potency was “inactive”.
With `Cc1cc(C)c(N(C(=O)Cn2nnc3ccccc32)C(C(=O)NC(C)(C)C)c2ccsc2)c(C)c1` (stereo not given) the Potency was inconclusive: 7.94 µM [inhibitor, partial curve].
For `CCOc1nc(Nc2ccccc2F)nc(OCC)n1`, the Potency was “inactive”.
With `CC(C)(CC(=O)NCc1ccc(Cl)cc1Cl)CC1=NS(=O)(=O)c2ccccc2N1` the Potency was inconclusive: 11.2 µM [inhibitor, single point].
With `CC(C)N=C(NC#N)SCc1ccc(F)cc1` the Potency was inconclusive: 3.55 µM [inhibitor, partial curve].
With `CN1CCN(C(c2ccc(Br)cc2)c2cc(Cl)c3cccnc3c2O)CC1` (stereo not given) the Potency was inconclusive: 20 µM [inhibitor, single point].
In the case of `CC1(C)CC(=O)C/C(=N/NC(=O)COc2ccc3ccccc3c2Br)C1`, the Potency is reported as inconclusive: 25.1 µM [inhibitor, single point].
For `COc1ccc(N2C(=S)NC3N2C(=S)NC3(C)c2ccccc2)cc1` (stereo not given), the Potency was inconclusive: 22.4 µM [inhibitor, single point].
With `CC1(C)Cc2cccc(OCC(=O)Nc3ccccc3F)c2O1` the Potency was inconclusive: 14.1 µM [inhibitor, single point].
In the case of `COC(=O)c1ccc(NS(=O)(=O)c2ccc3c(c2)n(C)c(=O)c(=O)n3C)cc1`, the Potency is reported as inconclusive: 3.55 µM [inhibitor, partial curve, poor fit].
In the case of `NC(=O)C1CCN(c2ccc(S(=O)(=O)N3CCC(Cc4ccccc4)CC3)cn2)CC1`, the Potency is reported as inconclusive: 0.398 µM [inhibitor, full curve, poor fit].
With `O=C1c2ccccc2-c2onc3ccc(Oc4ccccc4)c1c23` the Potency was inconclusive: 5.62 µM [inhibitor, single point].
In the case of `Cn1c2c(c(=O)n(C)c1=O)C(c1ccccc1C(F)(F)F)CC(=O)N2` (stereo not given), the Potency is reported as inconclusive: 15.8 µM [inhibitor, single point].
For `COCc1cccc(-c2csc(C(N)c3ccc(F)c(F)c3)n2)c1` (stereo not given), the Potency was inconclusive: 5.62 µM [inhibitor, single point].
With `COc1ccc(CCCNC(=O)C2(C)Cc3c(-c4cccc(C(N)=O)c4)ccnc3O2)cc1` (stereo not given) the Potency was “inactive”.
For `Cc1ccsc1C(=O)Nc1cc(Cl)ccc1-n1cncn1`, the Potency was “inactive”.
In the case of `Cn1c(COc2ccccc2C(C)(C)C)nc2ccccc21`, the Potency is reported as inconclusive: 25.1 µM [inhibitor, single point].
With `COC(=O)c1ccc(S(=O)(=O)NNC(=O)COc2ccc(C)cc2)cc1` the Potency was inconclusive: 6.31 µM [inhibitor, single point].
With `Cc1ccc(-c2cc3onc(-c4ccccc4)c3c(=O)n2C)cc1` the Potency was inconclusive: 8.91 µM [inhibitor, single point].
For `COc1ccc(S(=O)(=O)c2cc3cc(C(C)(C)C)cc(O)c3oc2=O)cc1`, the Potency was inconclusive: 25.1 µM [inhibitor, single point].
With `O=C(CSc1nnc(Cc2cccs2)n1Cc1ccco1)Nc1cc(Cl)cc(Cl)c1` the Potency was inconclusive: 35.5 µM [inhibitor, single point].
For `CC(C)(C)OC(=O)C(Cc1ccc(OC(C)(C)C)cc1)NC(=O)CNC(=O)OCc1ccccc1` (stereo not drawn) (Cbz-Gly-[ξY](tBu)-OtBu), the Potency was inconclusive: 22.4 µM [inhibitor, single point].
With `CCOC(=O)N1CCC(N(C(=O)Nc2ccc(Cl)c(Cl)c2)C(C)CC)CC1` (stereo not given) the Potency was inconclusive: 14.1 µM [inhibitor, single point].
With `CCc1ccc2[nH]c(=O)c(CN(CCO)C(=O)NCc3ccccc3)cc2c1` the Potency was inconclusive: 15.8 µM [inhibitor, single point].
For `CN(C)c1ccc(NS(=O)(=O)c2ccc(-c3csnn3)cc2)cc1`, the Potency was “inactive”.
With `CCS(=O)(=O)N1CCc2cc(C(=O)NC(C)c3ccccc3)ccc21` (stereo not given) the Potency was inconclusive: 35.5 µM [inhibitor, single point].
With `CC(NC(=O)/C(C#N)=C/c1ccc(Cl)c([N+](=O)[O-])c1)c1ccccc1` (stereo not given) the Potency was inconclusive: 35.5 µM [inhibitor, single point].
With `O=c1c2sc3ccccc3c2n(Cc2cccc(C(F)(F)F)c2)c(=O)n1-c1ccccc1` the Potency was “inactive”.
With `COc1ccc(CC(=O)N2CCC(C)(C(=O)NS(=O)(=O)C3CC3)C2)cc1OC` (stereo not given) the Potency was “inactive”.
With `CCNC(=S)N/N=C(\C)c1ccc2ccccc2c1OC(F)F` the Potency was inconclusive: 7.08 µM [inhibitor, full curve, poor fit].
For `CC(=O)c1sc(Nc2nc3ccc(F)cc3s2)nc1C`, the Potency was inconclusive: 35.5 µM [inhibitor, single point].
For `COc1ccc(C(=O)C[n+]2ccc(N)c(C)c2C)cc1`, the Potency was inconclusive: 0.447 µM [inhibitor, full curve, poor fit].
For `CCc1ccc(N2CC(C(=O)NCc3ccc4c(c3)OCO4)CC2=O)cc1` (stereo not given), the Potency was “inactive”.
In the case of `Oc1c(Cl)cc(Cl)c2cccnc12`, the Potency is reported as inconclusive: 3.55 µM [inhibitor, full curve].
For `Cc1ccc(C(NC(=O)C2CCN(Cc3ccc(Oc4ccccc4)cc3)CC2)c2ccccn2)cc1` (stereo not given), the Potency was inconclusive: 20 µM [inhibitor, single point].
